# This is one part of the list.
# B1: chr2:65473708:65473709:+_ENSG00000138071_ENST00000260641|hu_hu|FALSE|FALSE (ssRNA)
# RNA: GGGAGUUCUACAGUCCGACGAUCUUUCUCUGGUCCAAAUGUGUAGUCCCACAGGUGUUUCAUGUCAUCCCAAUUUCGUACUAUGCCAUUUUCCAUAGGGUAGUUAACUUCUAACAUUGAUCGUAAUUCACUUGCCUCAUCACCCAACAGAGGAUUGAGCAUCA
# B2: 151051166_151052720_551_CDS_ENSG00000113140_ENST00000231061|human|control|control (ssRNA)
# RNA: GGGAGUUCUACAGUCCGACGAUCGGUGGGGUCCUGGCACACGCACAUGGGGGUGUUGUUCUCAUCCAGCUCGCACACCUUGCCGUGUUUGCAGUGGUGGUUCUGGCAGGGAUUUUCCGCCACCACCUCCUCUUCGGUUUCCUCCAACAGAGGAUUGAGCAUCA
# B3: chr11:90138519:90138520:+_ENSMUSG00000003948_ENSMUST00000004050|mus_hu|FALSE|FALSE (ssRNA)
# RNA: GGGAGUUCUACAGUCCGACGAUCAACAAUUUUCUUCUUAAAAAGGAAGGUUUGUUAUUGCACUGACUUUUACAACCUGACAUAGUAAUUUAGAAAAAUCAUGUAGUAAAAUCUGUAAAAUUAAAAUAUAAAAGUCUGGUUUGUCAACAGAGGAUUGAGCAUCA
# B4: chr14:31813938:31813939:-_ENSMUSG00000021917_ENSMUST00000162092|perfect_dup|motif|central (ssRNA)
# RNA: GGGAGUUCUACAGUCCGACGAUCAACUAUAUAGACAGUCCACCCGAACUGUUCAGCCACGUACCCGUAGAUAAAUCCAACGGUUGCAGAAAAAAGAAUAAUUCCCUGAAACAUCUGUUCAGCUAGCUUCUGGCCCUUGUAAUCCAACAGAGGAUUGAGCAUCA
# B5: chr11:90138519:90138520:+_ENSMUSG00000003948_ENSMUST00000004050|mus_mus|motif|central (ssRNA)
# RNA: GGGAGUUCUACAGUCCGACGAUCUUGGGUUUUCUUAAAAAGGAAGUUGUAUUACUAUUGCACUGACUUUGACAACCUGACCGGCUUAAUUUAGAAAAAAAUCAUCGUAGUUAAAAUCUGUAAAAGAAAAAUACAAAAAUUUCUCAACAGAGGAUUGAGCAUCA
# B6: chr4:81936313:81936314:-_ENSMUSG00000008575_ENSMUST00000064770|mus_hu|FALSE|FALSE (ssRNA)
# RNA: GGGAGUUCUACAGUCCGACGAUCCCCACAAAAAGUACCCAAAGAACGUUAUCCUCCAACCGGGCACAAUAAAACCUUCACUAACAUUCUGGCCCAGUCUGGGGUUGAUCCCAGAGGCCUGAACUCUAGAAAUUAAGUAACUGUCAACAGAGGAUUGAGCAUCA
# Target: T1, UNK ZnF1-3 (human, UniProt Q9C0B0 31-174)
# T1 sequence: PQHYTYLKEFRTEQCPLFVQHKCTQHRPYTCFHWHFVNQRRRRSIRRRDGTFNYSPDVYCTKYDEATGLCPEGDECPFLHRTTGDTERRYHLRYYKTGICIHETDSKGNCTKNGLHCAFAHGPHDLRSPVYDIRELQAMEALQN
# Assay: nsRBNS (natural sequence RNA bind-n-seq); RBNS binding buffer (assumed for nsRBNS): 25 mM Tris pH 7.5, 150 mM KCl, 3 mM MgCl2, 0.01% Triton X-100, 500 ug/ml BSA, 20 U/ml SUPERase-In, 4 C; UNK is unkempt and MSI1 is Musashi-1; names of the RNAs are library labels; protein concentration not given here; high values mean tight binding
row,Binder,binding signal [enrichment R]
1,B1,0.652
2,B2,0.653
3,B3,2.29
4,B4,1.33
5,B5,2.06
6,B6,1.13
